Measurements published in PMC4336329 (PLoS ONE, 2015).
Among all 310,000 compounds or so, about 2,200 (0.71%) showed an effect of 50% or more. Effects have a minus sign here. The list shows a part of the results.

Target: human ether-à-go-go-related gene (hERG) potassium channel (human, UniProt Q12809)
Assay: primary screen, population patch clamp on CHO cells stably expressing hERG

Sequence of human ether-à-go-go-related gene (hERG) potassium channel (Q12809 whole entry, looked up): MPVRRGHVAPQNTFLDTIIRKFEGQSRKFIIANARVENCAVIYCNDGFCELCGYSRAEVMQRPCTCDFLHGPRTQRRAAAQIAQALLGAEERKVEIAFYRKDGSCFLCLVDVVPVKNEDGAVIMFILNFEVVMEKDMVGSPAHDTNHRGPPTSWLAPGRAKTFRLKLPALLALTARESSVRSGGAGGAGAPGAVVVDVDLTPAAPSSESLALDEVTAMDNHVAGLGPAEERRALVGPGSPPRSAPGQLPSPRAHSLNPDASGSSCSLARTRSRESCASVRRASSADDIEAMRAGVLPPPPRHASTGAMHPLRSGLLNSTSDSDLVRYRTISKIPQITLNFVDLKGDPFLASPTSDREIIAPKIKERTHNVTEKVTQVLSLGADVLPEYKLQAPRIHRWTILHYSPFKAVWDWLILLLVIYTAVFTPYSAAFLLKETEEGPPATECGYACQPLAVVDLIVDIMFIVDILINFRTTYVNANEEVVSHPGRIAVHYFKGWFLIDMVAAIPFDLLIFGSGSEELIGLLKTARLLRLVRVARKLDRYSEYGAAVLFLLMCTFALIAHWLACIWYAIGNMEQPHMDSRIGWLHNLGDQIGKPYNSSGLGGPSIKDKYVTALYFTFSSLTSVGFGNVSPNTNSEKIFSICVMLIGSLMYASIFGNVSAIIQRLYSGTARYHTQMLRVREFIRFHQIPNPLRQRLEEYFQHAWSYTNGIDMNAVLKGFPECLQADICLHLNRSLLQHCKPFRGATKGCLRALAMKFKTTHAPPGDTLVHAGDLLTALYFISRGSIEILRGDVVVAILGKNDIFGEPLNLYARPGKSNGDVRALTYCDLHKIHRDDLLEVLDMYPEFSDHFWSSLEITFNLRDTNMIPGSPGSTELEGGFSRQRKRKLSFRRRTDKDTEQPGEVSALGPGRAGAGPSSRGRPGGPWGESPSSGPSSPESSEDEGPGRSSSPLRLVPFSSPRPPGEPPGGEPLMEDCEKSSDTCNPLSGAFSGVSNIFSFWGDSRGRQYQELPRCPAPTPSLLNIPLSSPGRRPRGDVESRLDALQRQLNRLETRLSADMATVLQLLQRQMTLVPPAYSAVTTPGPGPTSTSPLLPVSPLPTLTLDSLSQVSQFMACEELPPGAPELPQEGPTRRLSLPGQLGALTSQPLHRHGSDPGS

| SMILES | hERG current change (%, negative = inhibition) at 1uM |
| --- | --- |
| Cl.NC(N)=Nc1nc(C2COc3ccccc3O2)cs1 (stereo not shown) | 6.1% |
| CC(C)NS(=O)(=O)c1ccc(NC(=O)C(C)OC(=O)C2CCC2)cc1 (stereo not shown) | 19.5% |
| CN1CCN(C(=O)/C=C\c2ccc(Cl)cc2)CC1 | -9.84% |
| CC1=C(C(=O)Nc2ccccn2)C(c2ccc3c(c2)OCO3)C2=C(CC(C)(C)CC2=O)N1 (stereo not shown) | 10.7% |
| O=C(C1CCN(Cc2ccc(F)cc2)CC1)N1CCN(C/C=C/c2ccccc2)CC1.O=C(O)C(=O)O | 4.01% |
| COc1cccc(-c2cc3onc(-c4ccccc4)c3c(=O)n2C)c1 | 4.51% |
| Cc1c(N2C(=O)C(=O)/C(=C(/O)c3ccc(Cl)cc3)C2c2ccccc2)c(=O)n(-c2ccccc2)n1C (stereo not shown) | 2.52% |
| O=C(CSc1nnc(-c2ccc(F)cc2)c2ccccc12)Nc1cccc(Cl)c1 | 1.25% |
| O=C(/C=C/c1ccccc1Cl)NCc1cccs1 | 0.0876% |
| Cc1cc(Br)ccc1NC(=O)C1C2CCC(O2)C1C(=O)O (stereo not shown) | 10.6% |
| COc1ccc(C(=O)Cn2cnc3ccccc3c2=O)cc1OC | 16.6% |
| O=C([O-])C(CCCCNS(=O)(=O)c1ccc(F)cc1)NS(=O)(=O)c1ccc(F)cc1.[K+] (stereo not shown) | 16.7% |
| O=c1oc2ccccc2c(NC2CCCCC2)c1NS(=O)(=O)c1ccc(Cl)cc1 | 10.5% |
| CCn1cc(CN2CCN(Cc3ccc(C)o3)C(CCO)C2)c2ccccc21 (stereo not shown) | 11.9% |
| COc1ccc(C)cc1NC(=O)CCS(=O)(=O)c1ccc2c(c1)oc(=O)n2C | 21.4% |
| COc1cccc(N2CC(O)=C(c3nc4ccccc4s3)C2=N)c1 | 7.52% |
| CC1C(=O)N2CCCc3cc(NC(=O)c4ccccc4Br)cc1c32 (stereo not shown) | 2.41% |
| CC1(C)Cc2cccc(C(=O)Nc3ccncc3)c2O1 | 8.04% |
| O=[N+]([O-])c1ccc(O)c(-c2nc(-c3ccccc3)c(-c3cccs3)[nH]2)c1 | -2.65% |
| COc1ccc(-c2nc(CS(=O)(=O)CC(=O)NCc3ccccc3Br)c(C)o2)cc1 | 1.58% |
| CCn1nc(C)c(CNC(=O)C2CCC(=O)N(CCc3ccc(Cl)cc3)C2)c1C (stereo not shown) | 16.2% |
| O=c1c(/C=N\NS(=O)(=O)c2ccccc2)coc2ccc(Cl)cc12 | 9.18% |
| COc1cccc(OCc2nc3ncc(Br)cc3[nH]2)c1 | 12.1% |
| COc1ccc(CN2C(=O)C(C)S/C2=N/N=C/c2ccco2)cc1 (stereo not shown) | 15.2% |
| O=c1cc(-c2ccc(Br)cc2)[nH][nH]1 | 16.3% |
| NNC(=O)c1sc2cc(C(F)(F)F)cnc2c1-c1ccccn1 | 12.7% |
| Cc1ccc(C)c(CN2C(=O)CSc3ccc(C(=O)NCC(C)CN4CCC(C)CC4)cc32)c1 (stereo not shown) | -70.4% |
| COC(=O)Cc1cc(=O)oc2cc(O)ccc12 | 9.01% |

| SMILES | hERG current change (%, negative = inhibition) at 1uM |
| --- | --- |
| CC1(c2ccc([N+](=O)[O-])cc2)NC(=O)NC1=O (stereo not shown) | 10.6% |
| O=C(OCc1nnc(-c2ccccc2)o1)c1ccc(CO)cc1 | 18.3% |
| CCOC(=O)c1cnn(-c2cc(Oc3ccccc3)ncn2)c1N | 4.93% |
| Cn1cccc1Cc1nnc(SCC(=O)N2CCCc3ccccc32)n1-c1ccc(F)cc1 | 1.94% |
| O=C(/C=C/c1ccco1)NCc1ccc2c(c1)OCO2 | 13.7% |
| COc1ccc(CNC(=O)CN2C(=O)COc3ccc(S(=O)(=O)N4CCCC4)cc32)cc1 | 6.86% |
| O=C(Cn1c(C(F)(F)F)nc2ccccc21)c1ccc(Cl)cc1 | 5.78% |
| Cc1nc(C(=O)N2CCCC(N3CCN(c4ccccc4C)CC3)C2)cs1 (stereo not shown) | -5.07% |
| CCCCn1c2c(c(=O)n(C)c1=O)C(c1ccc(OC)cc1)N1CCCCCC1=N2 (stereo not shown) | 5.61% |
| Cc1cccc(CCNC(=O)c2nnc(Cc3ccc(Cl)cc3)o2)c1 | 8.72% |
| C/C=C/C(=O)OCC(=O)Nc1cccc(F)c1 | 12.4% |
| COc1ccc(C2=NN(S(C)(=O)=O)C(c3ccc4nccnc4c3)C2)cc1 (stereo not shown) | 11.7% |
| Cn1c2c(c(=O)n(C)c1=O)CN(Cc1ccc(F)cc1)CN2 | 6.89% |
| O=C1c2ccccc2C(=O)C1c1ccncc1 | 16.3% |
| COc1cc(C[C@H](C)[C@H](C)Cc2ccc3c(c2)OCO3)ccc1O | -5.01% |
| O=C(CCCn1c(SCC(=O)c2ccc(F)cc2)nc2ccccc2c1=O)NCc1ccccc1 | 11.1% |
| COCCN(C(=O)C(C)C)c1nnc(-c2cccc(C)c2)s1 | 11% |
| CC1(C)C2CCC1(CS(=O)(=O)NCc1ccc(C(F)(F)F)cc1)C(=O)C2 (stereo not shown) | 14.9% |
| Cc1c(Cl)c(C(=O)N2CCCc3ccccc32)nn1C | 14.6% |
| FC(F)Oc1ccc(-c2csc(=Nc3cccnc3)n2CC2CCCO2)cc1 (stereo not shown) | 6.15% |
| COCCn1c(N)c(N(Cc2ccccc2)C(=O)C2=COCCO2)c(=O)[nH]c1=O | 14.9% |
| CN1C[C@@H]2C(c3ccc(C(F)(F)F)cc3)C3(c4ccc(C#N)cc4)CC2(C3)[C@H]1c1ccccc1 (stereo partly shown) | 15.3% |
| O=C(Nc1ccccc1N1CCCC1)C1CC(=O)N(Cc2ccccc2)C1 (stereo not shown) | -9.7% |
| NS(=O)(=O)c1ccc(CNC(=O)/C=C/c2ccc(Cl)c(Cl)c2)cc1 | 6.01% |
| COc1ccc(NS(=O)(=O)c2ccc(N3CCCC3)c(NC(=S)Nc3cccc(C)c3C)c2)cc1 | 3.05% |
| Cl.NC(N)=NC(=O)c1nc(Cl)c(N)nc1N.O | 1.88% |
| COC(=O)[C@H](Cc1ccccc1)NC(=O)N1CCN(Cc2ccccc2)CC1 | -2.39% |
